Test results taken from PubChem BioAssay AID493208 (National Center for Advancing Translational Sciences (NCATS), 2011).
Among all 44,000 compounds or so, about 340 (0.77%) were called active. Not shown: some 5% with an inconclusive outcome. The call rests on the fitted dose curve; in most records, active means well fitted inhibition curve with a large enough effect; inconclusive means small, poorly fitted or top-dose-only effect; inactive means flat fitted curve, though single readings scatter. The list shows a part of the results.

test: Acumen qHTS Assay for Inhibitors of the mTORC1 Signaling Pathway in MEF (Tsc2-/-, p53-/-) Cells: Sytravon; settings: phospho-rpS6 immunofluorescence/PI, 24 h; series mostly up to 38.3 µM; activity change, negative = inhibition: at the top concentration; further: nearly all actives have a fitted effect of over 50% in size;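 on activity change, negative = inhibition: plate controls were DMSO for no effect and rapamycin for full effect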
Outline: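 Cell-based qHTS: Tsc2-/- p53-/- MEF, 24 h cpd, 37 °C; fix/perm, anti-phospho-S6 Alexa-488 + PI; Acumen 488 nm scan; pS6/PI ratio, % positive cells; rapamycin 7.5 nM = inhibition ref; PI count = viability.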
Potency means the concentration at half of the fitted maximal effect.

Row | Structure (SMILES) | activity change, negative = inhibition | Potency
1 | COc1cc(NC(=O)c2cc3ccccn3n2)cc(OC)c1OC | inactive: -2.85% | 
2 | CCOc1ccc(-c2cc(-c3nc(-c4cc(OC)c(OC)c(OC)c4)no3)[nH]n2)cc1 | inactive: -6.56% | 
3 | CC(=O)c1ccc(NC(=O)c2ccc(-c3nc(CSc4ccccc4)c(C)o3)cc2)cc1 | inactive: -1.39% | 
4 | Fc1ccc(-c2noc3ncnc(NCC4CCN(Cc5ccc(Cl)cc5)CC4)c23)cc1 | inactive: -12.1% | 
5 | COc1cc(NC(=O)c2cc(C)nc3c2c(C)nn3-c2ccccc2Cl)cc(OC)c1 | inactive: 2.13% | 
6 | Cc1ccc2cc3c(N)nn(C(=O)c4cccc(F)c4)c3nc2c1 | inactive: -12.1% | 
7 | Cc1cc(C)cc(NC(=O)Cn2nnc(-c3nc(-c4ccncc4)no3)c2N)c1 | inactive: -4.07% | 
8 | Cc1ccc(N2CCN(S(=O)(=O)c3ccc(F)c(C(=O)Nc4ccc(Cl)cc4Cl)c3)CC2C)cc1 (configuration not stated) | inactive: 10.3% | 
9 | Cc1cc2c(cc3c(SCc4nc(-c5ccccc5)oc4C)nnc(C)n32)o1 | inactive: -0.889% | 
10 | CCn1ccc2c(OCC(=O)Nc3ccccc3C)cccc2c1=O | inactive: -7.96% | 
11 | O=C(Nc1ccc2nc(SCC(=O)N3CCCc4ccccc43)sc2c1)c1ccccc1 | inactive: -12.3% | 
12 | CCOC(=O)c1ccc(NC(=O)Nc2cc3c(cc2N2CCCC2)n(C)c(=O)n3C)cc1 | inactive: 13.9% | 
13 | COc1ccc(N2CCN(C(=O)c3cccc(NC(=O)c4nsc5ccccc45)c3)CC2)cc1 | inactive: 0% | 
14 | Nc1c(C(=O)Nc2ccc(F)c(F)c2)sc2nc(-c3ccncc3)ccc12 | inactive: -2.74% | 
15 | COC(=O)c1cc(NC(=O)c2nn(C)c3c2COc2ccccc2-3)cc(C(=O)OC)c1 | inactive: -17.2% | 
16 | COc1ccc(S(=O)(=O)Nc2ccc3c(c2)CCCN3S(=O)(=O)c2ccc(C)cc2)cc1F | inactive: 8.17% | 
17 | COc1cccc(CNC(=O)c2cc(C)nc3c2c(C)nn3-c2cccc(F)c2)c1 | inactive: -18.8% | 
18 | O=C(COCc1cc(-c2ccc3c(c2)OCO3)on1)N1CCN(c2ccccc2)CC1 | inactive: -1.47% | 
19 | COc1ccccc1NC(=O)C1=C(C)Nc2nc(SCc3ccccc3F)nn2C1c1cccs1 (configuration not stated) | inactive: 0% | 
20 | Cc1ccc(S(=O)(=O)NCCc2cn3ccsc3n2)cc1 | inactive: 3.61% | 
21 | COc1ccc(-n2nnnc2C2CCN(S(=O)(=O)c3ccc(C(C)(C)C)cc3)CC2)cc1 | inactive: -5.25% | 
22 | CCC(CC)C(=O)Nc1nc2c(s1)CC(C)CC2 (configuration not stated) | inactive: -2.39% | 
23 | COc1ccccc1CCNS(=O)(=O)c1ccc(N2CCCCS2(=O)=O)cc1 | inactive: 9.69% | 
24 | COc1ccc(NC(=O)CCc2nnc3n(CC(C)C)c(=O)c4ccccc4n23)cc1 | inactive: -0.0948% | 
25 | COc1ccc(CNC(=O)c2ccc(CS(=O)Cc3ccccc3Cl)o2)cc1 (configuration not stated) | inactive: -2.89% | 

Row | Structure (SMILES) | activity change, negative = inhibition | Potency
26 | Cc1ccc(C2c3[nH]c4ccccc4c3CCN2C(=O)CCC2CCCC2)cc1 (configuration not stated) | inactive: -28.8% | 
27 | Cc1nc2ccn(Cc3ccco3)c(=O)c2cc1C(=O)N1CCN(c2ccccc2)CC1 | inactive: -0.394% | 
28 | CCc1ccccc1NC(=O)C1CCCN(c2ncnc3onc(C)c23)C1 (configuration not stated) | inactive: -23.3% | 
29 | O=C(c1ccc(CSc2nc3ccncc3n2Cc2ccccc2)cc1)N1CCCCCC1 | inactive: 2.41% | 
30 | Cc1ccc(-n2nc(C(=O)N3CCN(c4cc(Cl)ccc4C)CC3)c3c4ccccc4n(C)c3c2=O)cc1 | inactive: -9.22% | 
31 | Cc1ccc(Cl)cc1-n1ncc2c(Nc3cccc(C)c3C)ncnc21 | inactive: 0.931% | 
32 | Cc1ccc(NC(=O)Cn2ccn(-c3ccc(F)c(F)c3)c(=O)c2=O)cc1C | inactive: 9.72% | 
33 | C=Cc1ccc(CSc2nc(-c3ccc(C)cc3)nc3c2Cc2c(CO)cnc(C)c2O3)cc1 | inactive: 1.29% | 
34 | CC(C)c1ccc(OCC(=O)N(Cc2ccc(N(C)C)cc2)C2CCS(=O)(=O)C2)cc1 (configuration not stated) | inactive: -1.14% | 
35 | O=C(Nc1cccc(C(=O)OCc2cc(=O)n3c4c(sc3n2)CCCC4)c1)c1ccccc1 | inactive: 2.97% | 
36 | Cc1cccc(NC(=O)C(NS(=O)(=O)c2ccc3c(c2)oc(=O)n3C)C(C)C)c1 (configuration not stated) | inactive: 0.974% | 
37 | O=c1c(S(=O)(=O)c2cccc(Cl)c2)cn(Cc2ccccc2)c2cc(N3CCOCC3)c(F)cc12 | inactive: 0.103% | 
38 | Cc1ccc2nc(-c3cccnc3)c(Nc3ccccc3C)n2c1 | inactive: 2.15% | 
39 | CCOc1ccc(S(=O)(=O)Nc2nc3ccccc3nc2Nc2ccc(OC)cc2)cc1 | inactive: 5.61% | 
40 | Cc1cc(C)c2nc(N(Cc3cccnc3)C(=O)CCOc3ccccc3)sc2c1 | inactive: -2.63% | 
41 | CCc1ccc(NC(=O)Cn2c(=O)n(Cc3ccco3)c(=O)c3cccnc32)cc1 | inactive: -6.09% | 
42 | COc1cc(CCC(=O)NCc2ccc3c(c2)CCN3C(=O)c2ccc(F)cc2)cc(OC)c1OC | inactive: -5.06% | 
43 | CCOC(=O)c1c(SCC(=O)Nc2cc(Cl)cc(Cl)c2)nc(=O)[nH]c1C | inactive: -4.74% | 
44 | COc1ccc2ncc3c(-c4ccc(C)c(C)c4)nn(CC(=O)NC4CCCC4)c3c2c1 | inactive: 0.753% | 
45 | COc1ccc(-c2nc3c(c(SCC(=O)N(C)c4ccccc4)n2)Cc2cc(C)ccc2O3)cc1 | inactive: 0.247% | 
46 | CCCCNC(=O)C1CCC(CNS(=O)(=O)c2ccc(NC(C)=O)cc2)CC1 (configuration not stated) | inactive: -7.35% | 
47 | Cc1ccc2nc(NCc3ccc(F)cc3)c3nncn3c2c1 | inactive: 6.46% | 
48 | Cc1nc(-c2ccc(S(=O)(=O)NCc3ccc(N(C)C)cc3)cc2)co1 | inactive: -2.15% | 
49 | CCN(CC)c1ccc(NC(=O)Cn2nc(C)n3cccc3c2=O)c(C)c1 | inactive: -1.07% | 
50 | Cc1cccc(-n2ncc3c(N4CCN(c5ccccc5)CC4)ncnc32)c1 | inactive: 2.61% | 

Row | Structure (SMILES) | activity change, negative = inhibition | Potency
51 | CCc1ccccc1NC(=O)CCc1c(C)nn(-c2ccc(N3CCOCC3)nn2)c1C | inactive: -10.4% | 
52 | CCc1nn2c(=O)cc(COC(=O)c3ccccc3NC(=O)C3CCCCC3)nc2s1 | inactive: 7.19% | 
53 | CCc1ccc(CNCc2c(C(=O)O)n(Cc3ccc(F)cc3Cl)c3cc(OC)ccc23)cc1 | inactive: 1.29% | 
54 | O=C(c1ccc(F)cc1)n1nc(-c2ccccc2)nc1NCc1ccc(F)cc1 | inactive: -4.12% | 
55 | COc1cc2ccccc2cc1C(=O)N1CCN(c2nc3ccc(F)cc3s2)CC1 | inactive: -3.08% | 
56 | CCC(Sc1nc2ccccc2c2nc(-c3ccccc3)nn12)C(=O)Nc1cccc(OC)c1 (configuration not stated) | inactive: -0.296% | 
57 | Cc1ccc2oc(=O)c3cnn(CC(=O)N4CCN(c5ccccc5)CC4)c3c2c1 | inactive: -14.5% | 
58 | COC(=O)c1c(NC(=O)CS(=O)(=O)c2ccc(C)cc2)sc2c1CCCC2 | inactive: -3.64% | 
59 | Cc1c(Cl)cccc1NC(=O)CCN1C(=O)c2ccccc2Sc2ncccc21 | inactive: -12.3% | 
60 | CCN(CC)C(=O)c1cc(-c2ccc(Cl)cc2)on1 | inactive: 3.19% | 
61 | CCN(C(=O)Cn1nnc2sc(-c3ccccc3)cc2c1=O)c1cccc(C)c1 | inactive: -2.78% | 
62 | Cc1cc(NC(=O)CCNS(=O)(=O)c2ccc3c(c2)oc(=O)n3C)ccc1Br | inactive: -15.9% | 
63 | CCC(C)NC(=O)CSc1nc2n[nH]c(C)c2c(=N)n1-c1ccc(C)c(Cl)c1 (configuration not stated) | inactive: -9.76% | 
64 | O=C(Nc1ccc(F)cc1F)c1cc2nc(-c3ccco3)cc(C(F)(F)Cl)n2n1 | inactive: 0.11% | 
65 | O=C(Nc1nnc(S(=O)(=O)N2CCCc3ccccc32)s1)c1ccccc1 | inactive: 7.1% | 
66 | COC(=O)c1cnn2c(C)c(Cc3c(C)cc(C)cc3C)c(C)nc12 | inactive: 12.7% | 
67 | COc1ccc(NC(=O)CCn2c(=O)c3cccn3c3ccccc32)c(OC)c1 | inactive: 0.585% | 
68 | CCC1CN(C(=O)Nc2cccc3c2CCCC3)c2ccccc2O1 (configuration not stated) | inactive: -1.09% | 
69 | Cc1ccc2c(=O)cc(C(=O)Nc3ccc(S(=O)(=O)N(C)Cc4ccccc4)cc3)oc2c1 | inactive: 2.3% | 
70 | Cc1ccc(CNC(=O)CN(c2ccc(C)cc2)S(=O)(=O)c2c(C)nn(C)c2C)cc1 | inactive: -2.95% | 
71 | CCN(CC)S(=O)(=O)c1ccc2c(c1)c(=O)c(C(=O)N1CCN(c3cccc(C)c3)C(C)C1)cn2C (configuration not stated) | inactive: -17.6% | 
72 | CC(=O)c1ccc(NC(=O)CN(C)S(=O)(=O)c2cccc3nsnc23)cc1 | inactive: 13% | 
73 | COc1ccccc1-c1cc2nc(C)c(CCC(=O)NCc3cccc(Cl)c3)c(C)n2n1 | inactive: 0.21% | 
74 | CCCCn1c(C(C)NC(=O)c2ccccc2)nc2ccccc21 (configuration not stated) | inactive: 5.83% | 
75 | COc1ccc(N2CC(NC(=O)C3CC3)CC2=O)cc1OC (configuration not stated) | inactive: -1.96% | 

Row | Structure (SMILES) | activity change, negative = inhibition | Potency
76 | CCOC(=O)C1CCCN(CCC(=O)Nc2cccc(C)c2)C1 (configuration not stated) | inactive: -2.22% | 
77 | CCc1ccccc1NC(=O)c1cc(S(=O)(=O)N2CCCc3ccccc32)ccc1F | inactive: 13% | 
78 | Cc1c(C(=O)Nc2ccc(F)cc2)sc2nc[nH]c(=O)c12 | inactive: 0.04% | 
79 | CC(C)CCn1c(=O)c2sccc2n2c(CCCC(=O)NCc3ccc(F)cc3)nnc12 | inactive: -13.3% | 
80 | Fc1cccc(-n2ncc3c2ncn2nc(-c4ccccc4Cl)nc32)c1 | inactive: 5.39% | 
81 | CCOc1ccc(N(C)C(CNS(=O)(=O)c2ccccc2)c2ccccc2)cc1 (configuration not stated) | inactive: -14.9% | 
82 | O=C(COc1ccccc1)Nc1cccc(-c2cn3cccnc3n2)c1 | inactive: -3.04% | 
83 | Cc1cccc(N2CCN(C(=O)CCn3c(=O)c4cccn4c4cccnc43)CC2)c1C | inactive: 2.32% | 
84 | Cc1ccn2c(=O)c(C(=O)NC(C)c3ccccc3)c(O)nc2c1 (configuration not stated) | inactive: -11% | 
85 | CCOc1ccccc1CNC(=O)c1cccn1-c1nnc(N2CCCCC2)s1 | inactive: -12.5% | 
86 | COc1ccccc1N1CCN(C(=O)c2cc(-c3ccccc3O)on2)CC1 | inactive: 8% | 
87 | N#Cc1cccc(NC(=O)c2cc3c(s2)-c2ccc(Cl)cc2SC3)c1 | inactive: -6.3% | 
88 | COc1ccc(C2=C(Nc3ccc(C)c(C)c3)c3ccccc3C2=O)cc1 | inactive: -3.48% | 
89 | CCc1nn(CC(=O)NCc2ccccc2Cl)c(=O)c2cccn12 |  | active: 2.61 µM
90 | Cc1nc(-c2ccc(S(=O)(=O)Nc3ccc(C)c(N(C)C)c3)cc2)co1 | inactive: -7.48% | 
91 | COc1ccc(CCNC(=O)c2ccc3c(c2)N(Cc2ccc(F)cc2)CCS3)cc1OC | inactive: -5.18% | 
92 | Cc1cc(C)cc(NC(=O)c2cccc3c2C(=O)N(C2CCCCC2)C3)c1 | inactive: -5.82% | 
93 | O=C(COc1ccccc1[N+](=O)[O-])Nc1ccc(-c2nc3ccccc3s2)cc1 | inactive: -0.132% | 
94 | Cc1nc(SCC(=O)Nc2ccccc2F)[nH]c(=O)c1Cc1ccccc1 | inactive: -4.06% | 
95 | O=S(=O)(c1ccccc1)c1nc(-c2cccs2)oc1SCc1ccc(F)cc1 | inactive: -2.03% | 
96 | COc1ccccc1-n1c(-c2ccc(C)cc2)cn2c3c(=O)n(C)c(=O)n(C)c3nc12 | inactive: 9.75% | 
97 | COc1ccc(S(=O)(=O)c2cc(NS(=O)(=O)c3ccc(Cl)cc3)c(C)c(C)c2O)cc1 | inactive: 1.01% | 
